Measurements reported in the supplement of paper PMC8728848.
The other results are listed elsewhere or left out.

How the values were obtained:
Assay in all cases: glycan array binding signal (z-score within array); higher = stronger binding
Conditions in all cases: glycan notation: IUPAC condensed, linker removed
[1] = molecular target: Fuc(a1-2)[GalNAc(b1-3)]Gal
How it was run: (§1)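 Arrays were curated from the Consortium for Functional Glycomics database, 3228 in total, and kept only where the protein sequence was available. Binding is expressed as a within-array Z-score. This score was averaged across arrays of the same protein sequence at different concentrations or buffers and across linkers, and negative values can be read as non-binding.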

[2] = molecular target: Fuc(a1-3)GlcNAc
How it was run: as §1

[3] = molecular target: Fuc(a1-3)[Gal(b1-4)]Glc6S
How it was run: as §1

[4] = molecular target: Fuc(a1-3)[Gal(b1-4)]GlcNAc
How it was run: as §1

[5] = molecular target: Fuc(a1-3)[Gal(b1-4)]GlcNAc(b1-2)Man
How it was run: as §1

[6] = molecular target: Fuc(a1-3)[Gal(b1-4)]GlcNAc(b1-2)Man(a1-3)[Fuc(a1-3)[Gal(b1-4)]GlcNAc(b1-2)Man(a1-6)]Man(b1-4)GlcNAc(b1-4)GlcNAc
How it was run: as §1

[7] = molecular target: Fuc(a1-3)[Gal(b1-4)]GlcNAc(b1-2)Man(a1-3)[Fuc(a1-3)[Gal(b1-4)]GlcNAc(b1-2)Man(a1-6)]Man(b1-4)GlcNAc(b1-4)[Fuc(a1-6)]GlcNAc
How it was run: as §1

[8] = molecular target: Fuc(a1-3)[Gal(b1-4)]GlcNAc(b1-3)Gal(b1-3)[Fuc(a1-4)]GlcNAc
How it was run: as §1

[9] = molecular target: Fuc(a1-3)[Gal(b1-4)]GlcNAc(b1-3)Gal(b1-4)[Fuc(a1-3)]GlcNAc
How it was run: as §1

[10] = molecular target: Fuc(a1-3)[Gal(b1-4)]GlcNAc(b1-3)Gal(b1-4)[Fuc(a1-3)]GlcNAc(b1-3)Gal(b1-4)[Fuc(a1-3)]GlcNAc
How it was run: as §1

[11] = molecular target: Fuc(a1-3)[Gal(b1-4)]GlcNAc(b1-3)GalNAc
How it was run: as §1

[12] = molecular target: Fuc(a1-3)[Gal(b1-4)]GlcNAc(b1-6)GalNAc
How it was run: as §1

[13] = molecular target: Fuc(a1-3)[Gal(b1-4)]GlcNAc(b1-6)[Gal(b1-3)GlcNAc(b1-3)]Gal(b1-4)Glc
How it was run: as §1

[14] = molecular target: Fuc(a1-3)[Gal(b1-4)]GlcNAc6S
How it was run: as §1

[15] = molecular target: Fuc(a1-3)[Gal3S(b1-4)]Glc
How it was run: as §1

[16] = molecular target: Fuc(a1-3)[Gal3S(b1-4)]GlcNAc
How it was run: as §1

[17] = molecular target: Fuc(a1-3)[Gal3S(b1-4)]GlcNAc6S
How it was run: as §1

[18] = molecular target: Fuc(a1-3)[GalNAc(b1-4)]GlcNAc
How it was run: as §1

[19] = molecular target: Fuc(a1-3)[GalNAc(b1-4)]GlcNAc6S
How it was run: as §1

[20] = molecular target: Fuc(a1-4)GlcNAc
How it was run: as §1

[21] = molecular target: Fuc(b1-3)GlcNAc
How it was run: as §1

[22] = molecular target: Gal(a1-2)Gal
How it was run: as §1

[23] = molecular target: Gal(a1-3)Gal
How it was run: as §1

[24] = molecular target: Gal(a1-3)Gal(b1-3)GlcNAc
How it was run: as §1

[25] = molecular target: Gal(a1-3)Gal(b1-3)GlcNAc(b1-2)Man
How it was run: as §1

[26] = molecular target: Gal(a1-3)Gal(b1-3)GlcNAc(b1-2)Man(a1-3)[Gal(a1-3)Gal(b1-3)GlcNAc(b1-2)Man(a1-6)]Man(b1-4)GlcNAc(b1-4)GlcNAc
How it was run: as §1

[27] = molecular target: Gal(a1-3)Gal(b1-3)GlcNAc(b1-3)GalNAc
How it was run: as §1

[28] = molecular target: Gal(a1-3)Gal(b1-3)GlcNAc(b1-6)GalNAc
How it was run: as §1

[29] = molecular target: Gal(a1-3)Gal(b1-3)[Fuc(a1-4)]GlcNAc(b1-2)Man(a1-3)[Gal(a1-3)Gal(b1-3)[Fuc(a1-4)]GlcNAc(b1-2)Man(a1-6)]Man(b1-4)GlcNAc(b1-4)GlcNAc
How it was run: as §1

[30] = molecular target: Gal(a1-3)Gal(b1-4)Glc
How it was run: as §1

[31] = molecular target: Gal(a1-3)Gal(b1-4)GlcNAc
How it was run: as §1

[32] = molecular target: Gal(a1-3)Gal(b1-4)GlcNAc(b1-2)Man
How it was run: as §1

[33] = molecular target: Gal(a1-3)Gal(b1-4)GlcNAc(b1-2)Man(a1-3)[Gal(a1-3)Gal(b1-4)GlcNAc(b1-2)Man(a1-6)]Man(b1-4)GlcNAc(b1-4)GlcNAc
How it was run: as §1

[34] = molecular target: Gal(a1-3)Gal(b1-4)GlcNAc(b1-3)GalNAc
How it was run: as §1

[35] = molecular target: Gal(a1-3)Gal(b1-4)GlcNAc(b1-6)GalNAc
How it was run: as §1

[36] = molecular target: Gal(a1-3)Gal(b1-4)[Fuc(a1-3)]GlcNAc
How it was run: as §1

[37] = molecular target: Gal(a1-3)Gal(b1-4)[Fuc(a1-3)]GlcNAc(b1-2)Man(a1-3)[Gal(a1-3)Gal(b1-4)[Fuc(a1-3)]GlcNAc(b1-2)Man(a1-6)]Man(b1-4)GlcNAc(b1-4)GlcNAc
How it was run: as §1

[38] = molecular target: Gal(a1-3)GalNAc
How it was run: as §1

[39] = molecular target: Gal(a1-3)[Gal(a1-4)]Gal(b1-4)GlcNAc
How it was run: as §1

[40] = molecular target: Gal(a1-4)Gal(b1-3)GlcNAc(b1-2)Man(a1-3)[Gal(a1-4)Gal(b1-3)GlcNAc(b1-2)Man(a1-6)]Man(b1-4)GlcNAc(b1-4)GlcNAc
How it was run: as §1

[41] = molecular target: Gal(a1-4)Gal(b1-4)Glc
How it was run: as §1

[42] = molecular target: Gal(a1-4)Gal(b1-4)GlcNAc
How it was run: as §1

[43] = molecular target: Gal(a1-4)Gal(b1-4)GlcNAc(b1-2)Man(a1-3)[Gal(a1-4)Gal(b1-4)GlcNAc(b1-2)Man(a1-6)]Man(b1-4)GlcNAc(b1-4)GlcNAc
How it was run: as §1

[44] = molecular target: Gal(a1-4)Gal(b1-4)GlcNAc(b1-3)Gal(b1-4)Glc
How it was run: as §1

[45] = molecular target: Gal(a1-4)GlcNAc
How it was run: as §1

[46] = molecular target: Gal(a1-6)Glc
How it was run: as §1

[47] = molecular target: Gal(b1-2)Gal
How it was run: as §1

[48] = molecular target: Gal(b1-3)Gal
How it was run: as §1

[49] = molecular target: Gal(b1-3)Gal(b1-4)GlcNAc
How it was run: as §1

[50] = molecular target: Gal(b1-3)GalNAc
How it was run: as §1

[51] = molecular target: Gal(b1-3)GalNAc(a1-3)[Fuc(a1-2)]Gal(b1-4)Glc
How it was run: as §1

[52] = molecular target: Gal(b1-3)GalNAc(a1-3)[Fuc(a1-2)]Gal(b1-4)GlcNAc
How it was run: as §1

[53] = molecular target: Gal(b1-3)GalNAc(b1-3)Gal
How it was run: as §1

[54] = molecular target: Gal(b1-3)GalNAc(b1-3)Gal(a1-4)Gal(b1-4)Glc
How it was run: as §1

[55] = molecular target: Gal(b1-3)GalNAc(b1-4)Gal(b1-4)Glc
How it was run: as §1

[56] = molecular target: Gal(b1-3)GalNAc(b1-4)[Neu5Ac(a2-3)]Gal(b1-4)Glc
How it was run: as §1

[57] = molecular target: Gal(b1-3)GlcNAc
How it was run: as §1

[58] = molecular target: Gal(b1-3)GlcNAc(a1-3)Gal(b1-4)GlcNAc
How it was run: as §1

[59] = molecular target: Gal(b1-3)GlcNAc(a1-6)Gal(b1-4)GlcNAc
How it was run: as §1

[60] = molecular target: Gal(b1-3)GlcNAc(b1-2)Man
How it was run: as §1

B1: a L Fucosidase (Streptosporangium roseum), D2B1P1_STRRD (protein)
chain: MRRKLLLVPAVGLLVIGSIFATQPVASADTPPVYEPTVESLNSHPVPQWFNDDKFGIFIHWGAYSVPAWGPRGSYAEWYGNYMNAGGSATNAHHKATYGQDFNYDAFLQQWKAEKFDPADWVKLFKDAGAKYFVLTSKHHEGMALWDSKSSGRDSVDLGPGRDLAKELFDAARKDEAKLKAGFYYSLYEWYNPAYTGRPATNPYTGAEIPYTGAPGGGDYVKDYMLPQMRELIDGYDPDIIWCDGQWEKPASYWNTAGVIADYYNKALNSGKEVAVANRCKIQSGNLDSPELDFQTPEYTVKPDIDPVKWESSRGIAHSYGYNQNEPEEDHLTSDQLVDSLVDIVSKNGNLLLDIGPKADGTIPEIQRQRLLDIGAWLKANGEAIYGTTYWNRAEEKGGPDDVRYTAKDATLYATALKWPGEQLTLGADLPVDHSTRITMLGSGARLSWSRDEQGRVVVNTPQEAGKHAYVFKIETPGVRSLLRTSSSLAKEIAPGRTISGELTVTNPGKRHTPATKLSLTVPQGWTATLGAPRVRPLGPGESVKVPISVSAPEGVAPAPYTLGLYQRTGRMGTTTALPLTVNRPNLSLGKPATQKSTGYDAPASRAVDGNTGGDWSAGSTTHTAEPEKQAWWQVDLGASARLDSVDVWNRLDCCADRLKDFWVMASDQPFTTDDLDQARTAPGVTAVHVGEQAGSPSKVKLPEGTRGRYVRIQLASPSNPLSLAEVQVRGSMARPNLSLGKPATQKSTGYDAPASRAVDGNTGGDWSAGSTTHTAEPEKQAWWQVDLGASARLDSVDVWNRLDCCADRLKDFWVMASDQPFTTDDLDQARTAPGVTAVHVGEQAGSPSKVKLPEGTRGRYVRIQLASPSNPLSLAEVQVRLEHHHHHHS
- glycan array binding signal (z-score) [1]: -0.567
- glycan array binding signal (z-score) [2]: 0.881
- glycan array binding signal (z-score) [3]: -0.058
- glycan array binding signal (z-score) [4]: 0.166
- glycan array binding signal (z-score) [5]: -0.168
- glycan array binding signal (z-score) [6]: -0.381
- glycan array binding signal (z-score) [7]: -0.455
- glycan array binding signal (z-score) [8]: -0.253
- glycan array binding signal (z-score) [9]: 0.471
- glycan array binding signal (z-score) [10]: 0.432
- glycan array binding signal (z-score) [11]: 1.22
- glycan array binding signal (z-score) [12]: -0.081
- glycan array binding signal (z-score) [13]: -0.388
- glycan array binding signal (z-score) [14]: -0.332
- glycan array binding signal (z-score) [15]: -0.421
- glycan array binding signal (z-score) [16]: 0.551
- glycan array binding signal (z-score) [17]: -0.267
- glycan array binding signal (z-score) [18]: -0.325
- glycan array binding signal (z-score) [19]: -0.433
- glycan array binding signal (z-score) [20]: 2.99
- glycan array binding signal (z-score) [21]: 0.943
- glycan array binding signal (z-score) [22]: -0.337
- glycan array binding signal (z-score) [23]: -0.373
- glycan array binding signal (z-score) [24]: -0.369
- glycan array binding signal (z-score) [25]: -0.38
- glycan array binding signal (z-score) [26]: -0.102
- glycan array binding signal (z-score) [27]: 1.41
- glycan array binding signal (z-score) [28]: -0.4
- glycan array binding signal (z-score) [29]: -0.05
- glycan array binding signal (z-score) [30]: -0.409
- glycan array binding signal (z-score) [31]: -0.528
- glycan array binding signal (z-score) [32]: 0.657
- glycan array binding signal (z-score) [33]: -0.238
- glycan array binding signal (z-score) [34]: 0.059
- glycan array binding signal (z-score) [35]: 0.325
- glycan array binding signal (z-score) [36]: -0.582
- glycan array binding signal (z-score) [37]: -0.18
- glycan array binding signal (z-score) [38]: -0.534
- glycan array binding signal (z-score) [39]: -0.569
- glycan array binding signal (z-score) [40]: 0.753
- glycan array binding signal (z-score) [41]: -0.381
- glycan array binding signal (z-score) [42]: -0.527
- glycan array binding signal (z-score) [43]: -0.128
- glycan array binding signal (z-score) [44]: -0.276
- glycan array binding signal (z-score) [45]: -0.412
- glycan array binding signal (z-score) [46]: -0.266
- glycan array binding signal (z-score) [47]: -0.033
- glycan array binding signal (z-score) [48]: -0.424
- glycan array binding signal (z-score) [49]: -0.542
- glycan array binding signal (z-score) [50]: -0.32
- glycan array binding signal (z-score) [51]: 0.138
- glycan array binding signal (z-score) [52]: 0.097
- glycan array binding signal (z-score) [53]: -0.526
- glycan array binding signal (z-score) [54]: -0.265
- glycan array binding signal (z-score) [55]: -0.382
- glycan array binding signal (z-score) [56]: -0.462
- glycan array binding signal (z-score) [57]: -0.427
- glycan array binding signal (z-score) [58]: -0.506
- glycan array binding signal (z-score) [59]: -0.507
- glycan array binding signal (z-score) [60]: 0.534
